# Experimental data as given in article PMC12136788.
# The list shows a part of the results.
# T1: UNK ZnF1-3 (human, UniProt Q9C0B0 31-174)
# T1 sequence: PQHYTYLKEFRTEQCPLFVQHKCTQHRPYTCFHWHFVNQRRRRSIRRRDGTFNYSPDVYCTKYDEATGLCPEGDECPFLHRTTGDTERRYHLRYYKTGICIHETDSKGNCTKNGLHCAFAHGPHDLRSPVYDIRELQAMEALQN
# B1: 20139645_20139765_1461_CDS_ENSMUSG00000044066_ENSMUST00000050611|mouse|control|control (ssRNA)
# RNA: GGGAGUUCUACAGUCCGACGAUCCUCCUCUUCUGAUGGCCAUCCAGGCGUCACACAGGCCGGGCAGCUAACAUGCUGCCUGCCUCUCUUCUGUCUGGGAAAGGGUGGCUCUUUCUCCUUCGUCUUCAGCUGGGGAGAGCCCAUCAACAGAGGAUUGAGCAUCA
# B2: 38800450_38804603_1062_CDS_ENSG00000143889_ENST00000409328|human|control|control (ssRNA)
# RNA: GGGAGUUCUACAGUCCGACGAUCAUUUCCUCCAUGCAUGUAAGAGGAAGAAGCCUGUGGUAAUGGAUAAGCAACAAGUUCAGGUGUAUCUCGAGAGCCCAUUCUGUAACGACUUGGUAAAGGCAAUAAUGGACCAUGGGAUCCCAACAGAGGAUUGAGCAUCA
# B3: chr10:27425285:27425286:-_ENSG00000136758_ENST00000375972|hu_mus|motif|central (ssRNA)
# RNA: GGGAGUUCUACAGUCCGACGAUCUCUGUCCCGCAAAAGAAACCCCUUCACAAAUGAUGGUGCUAUAUUCUGUGCUUCGGCGGAUCUUUCAGAGGUAGACUGCAAACGUCGUGUCCUUGAUUUCAACGUUUUGAAACCCCGAGACAACAGAGGAUUGAGCAUCA
# B4: chr11:86518203:86518204:-_ENSMUSG00000047126_ENSMUST00000103186|perfect_dup|FALSE|FALSE (ssRNA)
# RNA: GGGAGUUCUACAGUCCGACGAUCGAACAACUCCAGGUGUUCUCUCAUUUUCUGUGGCUUGAAUUUAGAAUACAAAAUAGCUAGCUCUGUGAACAUUCCCAUGUGAGCUCGCUCCAGUCCCAAGGCUGCCUCCAACAUGGUGAUCAACAGAGGAUUGAGCAUCA
# B5: chr3:148802587:148802588:-_ENSG00000071794_ENST00000310053|hu_mus|hu_hu_hu_mus_False|58_58 (ssRNA)
# RNA: GGGAGUUCUACAGUCCGACGAUCUCCAACAACUUGUCCUCUCAUAGUUCCAAAUAAAACCAAAUCUUGCUCUUCAUCACUAGUUAGGAAGUCAUCUGGAGGAAUAAUGUCUUGGAAUUCAAAAUGUGGCAAGAAAGUUGAGUACAACAGAGGAUUGAGCAUCA
# B6: chr9:95013113:95013114:-_ENSG00000196305_ENST00000443024|hu_hu|hu_hu_hu_mus_False|1_28 (ssRNA)
# RNA: GGGAGUUCUACAGUCCGACGAUCCUCAGUCAGAAAGGGCGUGUAAGGGGCCAUCAGUCUGCACAGAGAAAGCAGGACACUGAACAGUGUCUCCAGAGCCAUGACACAAUCCUCCAUCCCACUCUCACCCUUUAACCUUCUGCGCAACAGAGGAUUGAGCAUCA
# B7: chr4:77932910:77932911:+_ENSG00000138758_ENST00000541121|hu_mus|FALSE|FALSE (ssRNA)
# RNA: GGGAGUUCUACAGUCCGACGAUCUUUAAUUUUCAAUUCUUCUUGCAAGUAGGCCUCAAACUGGGCGUCAAUGUAUUCCACUAUAGGCUUAUAGCUGUCAUCUUUAUUAAUCUGGUCUCCAAAUCCCACUGUGUCAACGAUUGUCAACAGAGGAUUGAGCAUCA
# B8: chr4:13604834:13604835:-_ENSG00000038219_ENST00000040738|hu_hu|FALSE|FALSE (ssRNA)
# RNA: GGGAGUUCUACAGUCCGACGAUCACUCAGUAACAUUCUAUGAACAGUUUCAGAAUCUAUAUUCACUUCAGUAGUUCCUCUAUGAAUGGGUUCUUUCUCCCCAGGGUUCAUUUUGGACACAGCACUUUGUAUAUGCAUUUUCUUCAACAGAGGAUUGAGCAUCA
# B9: chr7:54825262:54825263:-_ENSG00000132432_ENST00000352861|hu_hu|hu_hu_hu_mus_False|8_78 (ssRNA)
# RNA: GGGAGUUCUACAGUCCGACGAUCCUGCCGGCUGGGCUCCACAAACUGCAUUACCUGCAUGACUGCCGUUGGAUGGCGGAUUGAGAGCGUAGAGACACGUAGCUCAGGAGAGAACCGAGCCCAACGGCACCGGAACCUGGCAACCAACAGAGGAUUGAGCAUCA
# B10: chr1:63797873:63797874:+_ENSMUSG00000025962_ENSMUST00000128621|mus_hu|motif|central (ssRNA)
# RNA: GGGAGUUCUACAGUCCGACGAUCUCCUCUGGGGUGGCUUGAACCCAAACAAUAAGCAGAUCUGGAAACACAUAGCACAGCGGCUCUUUGAAUAUCUGUAGCAGAAGUUGUAUCCACAUCAGAAAGUGGUAGCACUUGAUUCCUCAACAGAGGAUUGAGCAUCA
# B11: chr7:97319096:97319097:+_ENSMUSG00000039361_ENSMUST00000049537|mus_hu|motif|central (ssRNA)
# RNA: GGGAGUUCUACAGUCCGACGAUCAUCUUUGAACAGGAGCAUGAAGGCAGCAUUUAUUACCCCAUUUGUAAGUUCAUUGCGGUUAACAUUAAAAUCAAGAAGUGCAUCCAUCUGAUUCUGAAUAAUUGGUACAGUUUUUAGGAGCAACAGAGGAUUGAGCAUCA
# B12: chr4:175160266:175160267:-_ENSG00000164117_ENST00000503293|hu_hu|FALSE|FALSE (ssRNA)
# RNA: GGGAGUUCUACAGUCCGACGAUCAGGGGCAUGGAUAUGACGAAAAAAUUCUCUCAGUGCAUUUGGCAAGAACUGAUUUCUAAAAUUAUGCAAUGUUACAAGGUCAUCCAAGACAUCUCUCCUUUCAUCAAGAUAGAUUCUCAGCAACAGAGGAUUGAGCAUCA
# B13: chr16:94690093:94690094:+_ENSMUSG00000040785_ENSMUST00000117648|mus_hu|mus_mus_mus_hu_True|48_88 (ssRNA)
# RNA: GGGAGUUCUACAGUCCGACGAUCGGGCUGGGAUGACGGACACACAGAUCUUCCCAGAGGGGGAAAAAGUCUUAGUCGAUACUAAUUUAAAAAGUAUAAUGAUUUUUGAAAAUCAGAUUACAUCUAUAAAAGAUGAAAAGCAAACAACAGAGGAUUGAGCAUCA
# B14: chrX:71549762:71549763:+_ENSMUSG00000019087_ENSMUST00000019231|mus_mus|mus_mus_mus_hu_False|38_98 (ssRNA)
# RNA: GGGAGUUCUACAGUCCGACGAUCAAACCCGUGUACUCACUCUUAACAGCACAACAUCACCAGAAAACGAUAACGACAGCCAAGCAGGACAGACAGUCAAGUAGUCUUUCCACACUCCCAAACUCAGGGAGCCCUAUAACCUUACAACAGAGGAUUGAGCAUCA
# B15: chr6:38652254:38652255:-_ENSG00000124767_ENST00000373365|hu_hu|hu_hu_hu_mus_False|8_8 (ssRNA)
# RNA: GGGAGUUCUACAGUCCGACGAUCCGAGAACUUCAUAGCAGGGAAGUCAAGCUUCUGCAGGAGGGUCAGUCCAAGAACCCUCGUAUAAAAAUCCAGGGACUUCUUAGGAUCCUUAAUUCUUAGCAUCGUCUGCUGCAGUAGAAACAACAGAGGAUUGAGCAUCA
# B16: chr14:55655841:55655842:-_ENSG00000126787_ENST00000247191|hu_hu|FALSE|FALSE (ssRNA)
# RNA: GGGAGUUCUACAGUCCGACGAUCUUCCUUAUGUCUAUUUUCUUUCUGAGACAGUGAUUUCCUAUGAGCAAUUUUAGUUCUAAUCAUUUCAGUACUUAUAUCCUUCCUGUGUCGACUGGCAAAAUGUGAUGAAGACAUCCUGAGCAACAGAGGAUUGAGCAUCA
# B17: chr19:8913615:8913616:-_ENSMUSG00000071658_ENSMUST00000096259|mus_hu|mus_mus_mus_hu_False|38_98 (ssRNA)
# RNA: GGGAGUUCUACAGUCCGACGAUCAGGGUACCAAAACACCCUGCCUCAAAUGGGUGCCCCACCCAGUAGGGAGUUGCAGCUGAAAGUAUCUGAUGCACUGACAGUUACUAUACGAAAGGAGGCCCCUGGGGAGGGCCAGGCCAGCAACAGAGGAUUGAGCAUCA
# B18: chr13:50590013:50590014:+_ENSG00000204977_ENST00000378182|hu_hu|FALSE|FALSE (ssRNA)
# RNA: GGGAGUUCUACAGUCCGACGAUCAGGUUGUUCUGUAAACACUGUAAUCCUCCCUGUUAGCAUCUCAAUUGUUUUGCUGCAAGAGCCAAACACCCUGAAAAAAGCUUGAGUGUUCCGGCUUAGGAAAUGUACCUCCACAAGAGCCAACAGAGGAUUGAGCAUCA
# B19: chr2:219093484:219093485:+_ENSG00000163466_ENST00000315717|hu_mus|FALSE|FALSE (ssRNA)
# RNA: GGGAGUUCUACAGUCCGACGAUCGAAUUUCAAAGAAAUACUGACCAUCACUUUUGUUUUGUCUCCAUUAGGAUUUGAAAUAUGAUAAAGGACGCCAUCAAAAUCUGCAAAUGUUACUUCUACAGCUUCUGGUUUGUUUCCGGCCAACAGAGGAUUGAGCAUCA
# B20: chr2:5814250:5814251:-_ENSMUSG00000025816_ENSMUST00000102981|mus_hu|mus_mus_mus_hu_True|18_58 (ssRNA)
# RNA: GGGAGUUCUACAGUCCGACGAUCUUCCUUUCCGGUUUCUGAAUUUCUGGUAGAACUGCACAGAAUGGUUUGAUAACUUCUAAAAACUUGAUGCCCAUGGCUGCUGCUGGGGAGGCCCGGCGGGCACCCGCGGCCUCGGCGCUGCAACAGAGGAUUGAGCAUCA
# B21: 5264949_5266305_1826_CDS_ENSG00000029725_ENST00000262477|human|control|control (ssRNA)
# RNA: GGGAGUUCUACAGUCCGACGAUCUCUCGUUUCAGCCUCCUGAAUCUGAAUUCCUUGUAACUGUUUUUCGUAAUUGGAACACAUAUCACAACGUCUACCAAGUUUAUUUCCAGCAUUAUGUACCUCUUUCUGCAAGAGAUUCCACAACAGAGGAUUGAGCAUCA
# B22: chr11:4040516:4040517:+_ENSMUSG00000003581_ENSMUST00000003677|mus_hu|FALSE|FALSE (ssRNA)
# RNA: GGGAGUUCUACAGUCCGACGAUCCUGAGGACCGGGGUGCAGGCAGGAAGGGUCCAUCCCCAUGUGCAGAGUCCAGCUGGGCAGCUAAUCAUCGGAGUAGCGGUUCCCCAGGACGUUGAAUUUGCACAGUGGGCAGGUCUGCUGCAACAGAGGAUUGAGCAUCA
# Target: T1, UNK ZnF1-3
# Experiment: nsRBNS (natural sequence RNA bind-n-seq); RBNS binding buffer (assumed for nsRBNS): 25 mM Tris pH 7.5, 150 mM KCl, 3 mM MgCl2, 0.01% Triton X-100, 500 ug/ml BSA, 20 U/ml SUPERase-In, 4 C; UNK is unkempt and MSI1 is Musashi-1; names of the RNAs are library labels; protein concentration not given here; high values mean tight binding
row,Binder,binding signal [enrichment R]
1,B1,0.617
2,B2,1.34
3,B3,0.818
4,B4,0.821
5,B5,1.33
6,B6,0.952
7,B7,0.625
8,B8,0.794
9,B9,1.28
10,B10,1.29
11,B11,1.54
12,B12,1.14
13,B13,1.28
14,B14,1.46
15,B15,0.931
16,B16,0.815
17,B17,1.39
18,B18,1.22
19,B19,1.54
20,B20,0.897
21,B21,0.677
22,B22,1.09
